# Values joined by “and” are separate entries in the source; they are usually repeats but may differ in a detail not shown here. Identical values can stand only once. This list was built around the results that the source calls inconclusive (neither active nor inactive); the mix of calls is not that of the screen. For some assays here: Where the call is inconclusive, the potency comes from a doubtful curve fit. Active and inactive are the calls of the source. Calls come from the whole dose curve; as a rule, active = well fitted curve in the direction sought with a large enough effect; inconclusive = small, poorly fitted or top-dose-only effect, or another doubt; inactive = no such curve, though single readings can be large; an effect the other way counts as inactive or inconclusive.
# How the values were obtained:
# [1] = test system: Zika virus NS2B-NS3 protease; assay: Primary screen GU AMC qHTS for Zika virus inhibitors (AID 1347154); note: nearly all actives have a fitted effect of over 70% in size
# Summary of the method: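 Unlinked Zika NS2B hydrophilic domain–NS3 protease complex at 25 nM in 10 mM Tris-HCl pH 8.0, 0.01% Tween 20, with an AMC peptide substrate. Fluorescence change (340/450 nm) over 15 min at room temperature, normalized to controls, fitted to 4-parameter Hill.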
# [2] = Primary qHTS for small molecule stabilizers of the endoplasmic reticulum resident proteome: Secreted ER Calcium Modulated Protein (SERCaMP) assay (AID 1508630); conditions: SH-SY5Y GLuc-SERCaMP (Gaussia luciferase released on ER calcium loss) secretion, thapsigargin, luminescence; series mostly up to 38.4 µM
# Summary of the method: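 GLuc-SERCaMP-expressing SH-SY5Y cells, pretreated 16 h with compound, are challenged with thapsigargin to empty ER calcium stores; after 4 h, coelenterazine is added directly to the medium and luminescence is imaged.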
# CASKI = assay: Primary qHTS to identify gynecologic anti-cancer compounds using libraries of approved drugs and bioactive compounds (AID 1345084); conditions: Gynecologic cancer cell panel viability, ATPlite luminescence, 48 h; series mostly up to 57.5 µM; note: nearly all actives have a fitted effect of over 55% in size
# Summary of the method: (§1)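 Luminescence from the ATPlite ATP-monitoring reagent indicates viable cell number; lower signal means cytotoxicity. Cells received compound 16 h after seeding and were exposed for 48 h across five concentrations.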
# OV90 = assay: as above; conditions: Gynecologic cancer cell panel viability, ATPlite luminescence, 48 h; series mostly up to 57.5 µM
# Summary of the method: as §1
# PA-1 = assay: as above; conditions: Gynecologic cancer cell panel viability, ATPlite luminescence, 48 h; series mostly up to 57.5 µM
# Summary of the method: as §1
# [3] = qHTS Assay for Identifying Gametocytocidal Compounds (AID 743244); conditions: P. falciparum 3D7 stage III-V gametocytes, alamarBlue, 72 h; max response: stronger effect = lower value
# Summary of the method: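 Compounds are pinned into medium, gametocytes (stage III–V, 3D7, 20,000 cells/well) added, and plates held 72 h at 37 °C in 5% CO2. AlamarBlue follows for 24 h before fluorescence reading.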
# [4] = qHTS of pediatric cancer cell lines to identify multiple opportunities for drug repurposing: Primary screen for SK-N-MC cells (AID 1347093); conditions: SK-N-MC viability, CellTiter-Glo luminescence, 48 h; activity change, negative = cytotoxic: at 46 µM (top of the series)
# Summary of the method: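 Metabolically active cells were quantified by ATP-dependent luminescence (CellTiter-Glo, 15 min at room temperature) following 48 h treatment. Cells had been plated at 500-1,000 per well and settled for 5 h beforehand.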
# [5] = Quantitative High-Throughput drug screen in 47 multiple myeloma cell lines against the NCATS MIPE library collection: KMS12PE_JCRB cell viability assay (AID 1918972); note: nearly all actives have a fitted effect of over 30% in size
# Summary of the method: (§2)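 Myeloma cell lines, 500 cells per well, exposed to MIPE 4.0 library compounds for 48 h at 37C, 5% CO2. Viability from ATP by CellTiter-Glo luminescence; normalised to DMSO (100%) and media-only (0%) wells.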
# [6] = Quantitative High-Throughput drug screen in 47 multiple myeloma cell lines against the NCATS MIPE library collection: U266_ATCC cell viability assay (AID 1919864); note: nearly all actives have a fitted effect of over 35% in size
# Summary of the method: (§3)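 500 cells/well per myeloma line exposed to pinned MIPE 4.0 compounds for 48 h at 37 °C, 5% CO2. Viability read as ATP by CellTiter-Glo luminescence, normalised to DMSO-only (100%) and media-only (0%) wells.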
# [7] = Quantitative High-Throughput drug screen in 47 multiple myeloma cell lines against the NCATS MIPE library collection: PCM6_Riken cell viability assay (AID 1919870); note: nearly all actives have a fitted effect of over 30% in size
# Summary of the method: as §3
# [8] = qHTS assay to identify inhibitors of the type 1 interferon - major histocompatibility complex class I in skeletal muscle: Counter screen cell viability and HiBit confirmation (AID 1347412); conditions: iHSKM muscle cells + IFN-b, HiBiT or CellTiter-Glo, 24 h; note: nearly all actives have a fitted effect of over 60% in size
# Summary of the method: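 CRISPR HLA-B*08:01-HiBit immortalized human myoblasts (C25cl48) stimulated with 4 ng/ml IFN-beta and compounds (12-point 1:3, top 46 uM final) for 24 h at 37 C. Duplicate plates read by HiBit lytic luminescence or CellTiter Glo ATP.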
# [9] = Quantitative High-Throughput drug screen in 47 multiple myeloma cell lines against the NCATS MIPE library collection: KMM1_JCRB cell viability assay (AID 1918960); note: nearly all actives have a fitted effect of over 30% in size
# Summary of the method: (§4)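 Myeloma cells at 500 per well in 1536-well format treated with MIPE 4.0 library by pin transfer for 48 h at 37C, 5% CO2. Viability from ATP luminescence (CellTiter-Glo), normalized to DMSO (100%) and media-only (0%) wells.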
# [10] = Quantitative High-Throughput drug screen in 47 multiple myeloma cell lines against the NCATS MIPE library collection: KMS12BM_JCRB cell viability assay (AID 1918971); note: nearly all actives have a fitted effect of over 35% in size
# Summary of the method: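 Luminescent ATP measurement with CellTiter-Glo gives viability, scaled between DMSO-only wells (100%) and media-only wells (0%). Cells, 500 per well, faced library compounds for 48 hours at 37C.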
# [11] = Quantitative High-Throughput drug screen in 47 multiple myeloma cell lines against the NCATS MIPE library collection: EJM_DSMZ cell viability assay (AID 1918926; note: nearly all actives have a fitted effect of over 30% in size)
# Summary of the method: (§5)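 Steps: seed 500 cells per well; pin-transfer MIPE 4.0 library; incubate 48 h at 37C, 5% CO2, humidified; add CellTiter-Glo, 5 min room temperature; read luminescence.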
# [12] = Quantitative High-Throughput drug screen in 47 multiple myeloma cell lines against the NCATS MIPE library collection: AMO1_DSMZ cell viability assay (AID 1918927; note: nearly all actives have a fitted effect of over 30% in size)
# Summary of the method: as §5
# [13] = Quantitative High-Throughput drug screen in 47 multiple myeloma cell lines against the NCATS MIPE library collection: ARP1_JJKsccF8 cell viability assay (AID 1918928; note: nearly all actives have a fitted effect of over 40% in size); conditions: ARP1 myeloma cells viability, CellTiter-Glo ATP, 48 h; viability: at 45.8 µM (top of the series)
# Summary of the method: as §4
# [14] = Quantitative High-Throughput drug screen in 47 multiple myeloma cell lines against the NCATS MIPE library collection: Karpas620_DSMZ cell viability assay (AID 1918959); note: nearly all actives have a fitted effect of over 30% in size
# Summary of the method: as §2
# [15] = Quantitative High-Throughput drug screen in 47 multiple myeloma cell lines against the NCATS MIPE library collection: KMS11_JCRBsus cell viability assay (AID 1919873); note: nearly all actives have a fitted effect of over 50% in size
# Summary of the method: as §3
# [16] = qHTS of pediatric cancer cell lines to identify multiple opportunities for drug repurposing: Primary screen for RD cells (AID 1347104); note: nearly all actives have a fitted effect of over 55% in size
# Summary of the method: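 Viability was measured as metabolically active cells after 48 hours of treatment, read by CellTiter-Glo luminescence. Compounds were tested at multiple final concentrations, giving concentration-response curves.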
# [17] = Quantitative High-Throughput drug screen in 47 multiple myeloma cell lines against the NCATS MIPE library collection: RPMI8226_ATCC cell viability assay (AID 1919871); note: nearly all actives have a fitted effect of over 30% in size
# Summary of the method: as §3
# Potency is the fitted concentration of half-maximal effect; tags give direction and shape of the fitted curve.
smiles,measurement,setting,value
O=C1NC2CCCCN2C12CCN(CCCN1c3ccccc3CCc3ccc(Cl)cc31)CC2 (stereo not given),Potency,[1],"inconclusive: 32.2 µM [inhibitor, partial curve, poor fit]"
same,Potency,[2],"inconclusive: 5.62 µM [inhibitor, partial curve, poor fit]"
same,Potency,CASKI,"inconclusive: 22.4 µM [cytotoxic, single point]"
same,Potency,OV90,"inconclusive: 35.5 µM [cytotoxic, single point]"
same,Potency,PA-1,"inconclusive: 31.6 µM [cytotoxic, single point]"
CC#C[C@]1(O)CC[C@H]2[C@@H]3CCC4=CC(=O)CCC4=C3[C@H](c3ccc(N(C)C)cc3)C[C@@]21C,Potency,[3],"inconclusive: 59 µM [inhibitor, single point]"
O=C(O)c1cc(-c2ccccc2)nc2ccccc12,Potency,[4],"inconclusive: 16.8 µM [cytotoxic, single point]"
same,Potency,CASKI,"inconclusive: 44.7 µM [cytotoxic, partial curve, poor fit] and inconclusive: 39.8 µM [cytotoxic, single point]"
same,Potency,OV90,"inconclusive: 2.82 µM [cytotoxic, single point] and inconclusive: 20 µM [cytotoxic, single point]"
same,Potency,PA-1,"inconclusive: 31.6 µM [cytotoxic, partial curve, poor fit] and inconclusive: 39.8 µM [cytotoxic, single point]"
CC(C)C[C@H](NC(=O)CNC(=O)c1cc(Cl)ccc1Cl)B(O)O,Potency,[4],active: 0.148 µM
same,Potency,[2],inactive
same,Potency,[5],active: 0.0743 µM
same,Potency,[6],active: 0.0833 µM
same,Potency,[7],active: 0.0662 µM
same,Potency,[8]; Viability,"inconclusive: 1.25 µM [cytotoxic, full curve, poor fit]"
CC(C)(C)c1cnc(CSc2cnc(NC(=O)C3CCNCC3)s2)o1,Potency,[3],active: 4.18 µM
same,Potency,[2],inactive
same,Potency,[9],active: 0.187 µM
same,Potency,[10],active: 0.132 µM
same,Potency,[6],active: 0.118 µM
same,Potency,[7],active: 0.0833 µM
CN(C)CC=CC(=O)Nc1cc2c(Nc3ccc(F)c(Cl)c3)ncnc2cc1O[C@H]1CCOC1,Potency,[4],active: 1.66 µM
same,Potency,[11],active: 16.6 µM
same,Potency,[12],active: 0.935 µM
same,Potency,[13],active: 18.7 µM
same,Potency,[14],active: 2.64 µM
same,Potency,[5],active: 1.18 µM
same,Potency,[15],active: 6.62 µM
COC(=O)C1=C(C)NC(C)=C(C(=O)OC(C)(C)CN(C)CCC(c2ccccc2)c2ccccc2)C1c1cccc([N+](=O)[O-])c1 (stereo not given),Potency,[4],active: 13.3 µM
same,Potency,[16],"inconclusive: 21.1 µM [cytotoxic, partial curve]"
same,Potency,[1],"inconclusive: 20 µM [inhibitor, partial curve, poor fit]"
same,Potency,[2],"inconclusive: 7.94 µM [inhibitor, single point] and inconclusive: 10 µM [inhibitor, single point]"
CC[C@@H]1C(=O)N(C)c2cnc(Nc3ccc(C(=O)NC4CCC(N5CCN(CC6CC6)CC5)CC4)cc3OC)nc2N1C(C)C (stereo not given in full),Potency,[16],active: 0.187 µM
same,Potency,[2],inactive
same,Potency,[14],"inconclusive: 7.43 µM [cytotoxic, partial curve, poor fit]"
same,Potency,[6],active: 5.9 µM
same,Potency,CASKI,"active: 17.8 µM and inconclusive: 35.5 µM [cytotoxic, partial curve, poor fit]"
same,Potency,OV90,active: 15.8 µM and active: 12.6 µM
same,Potency,PA-1,"active: 251 nM and inconclusive: 100 nM [cytotoxic, full curve, poor fit]"
same,Potency,[8]; HiBiT,active: 6.25 µM
same,Potency,[8]; Viability,"inconclusive: 39.4 µM [cytotoxic, single point]"
C[C@@H](Oc1cc(-n2cnc3ccc(CN4CCN(C)CC4)cc32)sc1C(N)=O)c1ccccc1C(F)(F)F,Potency,[3],active: 18.7 µM
same,Potency,[4],active: 0.105 µM
same,Potency,[16],"inconclusive: 0.0833 µM [cytotoxic, full curve, poor fit]"
same,Potency,[14],"inconclusive: 0.0166 µM [cytotoxic, full curve, poor fit]"
same,Potency,[9],active: 0.0332 µM
same,Potency,[5],"inconclusive: 8.33 µM [cytotoxic, partial curve, poor fit]"
same,Potency,[17],"inconclusive: 4.18 µM [cytotoxic, partial curve, poor fit]"
same,Potency,[8]; HiBiT,"inconclusive: 35.2 µM [inhibitor, single point]"
same,Potency,[8]; Viability,"inconclusive: 31.3 µM [cytotoxic, single point]"
Cc1cncc2cccc(S(=O)(=O)N3CCCN(C(=O)CN)C[C@@H]3C)c12,Potency,[4],"inconclusive: 7.43 µM [cytotoxic, full curve, poor fit]"
same,Potency,[13],"inconclusive: 4.69 µM [cytotoxic, full curve, poor fit]"
same,Potency,[14],"inconclusive: 1.18 µM [cytotoxic, full curve, poor fit]"
same,Potency,[10],inactive
same,Potency,[6],"inconclusive: 33.2 µM [cytotoxic, single point]"
same,Potency,[17],inactive
same,Potency,[15],"inconclusive: 16.6 µM [cytotoxic, partial curve]"
COc1ccc(C(=O)CC2(O)C(=O)Nc3c(Cl)ccc(Cl)c32)cc1 (stereo not given),Potency,[16],active: 5.9 µM
same,Potency,[14],"inconclusive: 1.05 µM [cytotoxic, full curve]"
same,Potency,[10],active: 2.09 µM
same,Potency,[6],"inconclusive: 33.2 µM [cytotoxic, single point]"
same,Potency,[7],"inconclusive: 5.26 µM [cytotoxic, partial curve]"
same,Potency,[15],active: 1.32 µM
same,Potency,CASKI,"inconclusive: 10 µM [cytotoxic, partial curve]"
